{"source": "PubChem BioAssay (NCI)", "note": "Values joined by “and” are separate entries in the source; they are usually repeats but may differ in a detail not shown here. Identical values can stand only once.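 Interpolation was linear, between the two tested concentrations surrounding the appropriate level; five concentrations were tested over 48 hours in 96-well plates. GI50 is the concentration that inhibits growth by half. The concentration for full growth arrest is given as TGI.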", "data": [{"system": "NCI-H322M lung", "assay": "growth of human tumour cells (NCI), 48 h", "units": {"TGI": "µM"}, "values": [{"smiles": "COC(=O)C1OC(O[C@H]2CC[C@]3(C)[C@H]4CC=C5[C@@H]6CC(C)(C)CC[C@]6(C(=O)OC6OCC(O)C(O)C6OC6OC(C)C(OC7OCC(OC8OCC(O)C(O)C8O)C(O)C7O)C(O)C6O)[C@H](O)C[C@@]5(C)[C@]4(C)CC[C@H]3C2(C)C)C(O)C(O)C1O", "note": "(stereo partly specified)", "TGI": 12.2}, {"smiles": "Cc1cc(/N=C/c2ccc(C#N)cc2)n(-c2ccccc2)n1", "TGI": "> 100"}, {"smiles": "O=[N+]([O-])c1ccc(C2=Nc3ccccc3SC(c3ccccc3)C2)cc1", "note": "(stereo unspecified)", "TGI": "> 100"}, {"smiles": "CO/N=C(/C)c1cccc(Nc2cc(-c3ccccc3)nc3ccc(OC)cc23)c1", "GI50": "3.24 µM", "TGI": 14.7}, {"smiles": "CCOC(=O)Cn1c(=O)n(C)c(=O)c2c1ncn2Cc1ccccc1", "TGI": "> 100"}, {"smiles": "COc1ccc(N=NC(=Nc2ccc(F)cc2)c2ccc(N(CCC#N)CCC#N)cc2)cc1", "TGI": "> 100"}, {"smiles": "O=C(Nc1ccc(-n2cc(-c3ccncc3)c(-c3ccc(O)c(Cl)c3)n2)cc1)Nc1cccc(Cl)c1Cl", "GI50": "16.8 µM", "TGI": "> 32.5"}, {"smiles": "O=C(c1ccccc1)N1C(=S)N=C(Nc2ccccc2)C1=Nc1ccccc1", "TGI": "> 100"}, {"smiles": "CC1CN1c1c(C(=O)/C=C/c2ccc(Cl)cc2)c(-c2ccccc2)nn(C)c1=O", "note": "(stereo unspecified)", "TGI": "> 10"}, {"smiles": "COc1cc(C=C2C(=O)NC(=S)NC2=O)cc(OC)c1OC", "TGI": "> 100"}, {"smiles": "O=C(NO)c1ccc(CN(c2cnccn2)c2cnccn2)cc1", "GI50": "21.3 µM", "TGI": 92.5}, {"smiles": "Nc1nc(Nc2ccc(Cl)cc2)sc1C(=O)c1cccs1", "TGI": "> 100"}, {"smiles": "COc1ccc(/C=C(/c2ccccc2)[N+](=O)[O-])cc1", "GI50": "1.52 µM", "TGI": 2.86}, {"smiles": "Nc1ccc2nc3n(c2c1)C(=O)c1ccccc1-3", "TGI": "> 100"}, {"smiles": "O/C(=C\\c1nc2ccccc2nc1NC12CC3CC(CC(C3)C1)C2)c1ccc(Br)cc1", "TGI": "> 10"}, {"smiles": "CCN(CC)CCNc1ccc2ncn3c4cc(OC)c(OC)c(=O)c4c(O)c1c23", "TGI": 21.9}, {"smiles": "COc1ccc2c3c(Nc4ccc(/C(C)=N/O)cc4)[nH]c4ccccc4c-3c(N=O)c2c1", "GI50": "2.26 µM", "TGI": 5.46}, {"smiles": "O=c1[nH]c(=O)n([C@H]2CCCO2)cc1F", "GI50": "948 µM and > 5000 µM", "TGI": "> 5000"}, {"smiles": "O=c1n(Cc2ccccc2)c(=O)n2c(=O)n(Cc3ccccc3)c(=O)n12", "TGI": "> 100"}, {"smiles": "COc1c(O)c(O)cc2c1-c1ccc(OC)c(=O)cc1C(NC(C)=O)CC2", "note": "(stereo unspecified)", "TGI": 49.8}, {"smiles": "CC[C@@]1(O)C(=O)OCc2c1cc1n(c2=O)Cc2c-1nc1cc(F)c(C)c3c1c2[C@@H](N)CC3", "GI50": "0.0151 µM", "TGI": "> 100"}, {"smiles": "O=C(Nc1ccc(Cl)c(Cl)c1)Nc1ccccc1O", "GI50": "14.7 µM", "TGI": 52.4}, {"smiles": "O=C1CS(=O)C23c4cc5ccccc5n4CCC2CCCN13", "note": "(stereo unspecified)", "TGI": "> 100"}, {"smiles": "COc1ccc(N=C2C(=S)N(c3ccc(OC)cc3)/C(=N/S(=O)(=O)c3ccccc3)N2c2ccccc2)cc1", "TGI": "> 100"}, {"smiles": "Cc1ccc(S(=O)(=O)NC(=O)NC2=NC(C)(C)N(c3ccc(Cl)c(Cl)c3)C(N)=N2)cc1", "TGI": "> 100"}, {"smiles": "Cn1ccnc1Sc1ccc(C=Nc2ccc3nc(SCC(=O)NC4CCCCC4)sc3c2)cc1[N+](=O)[O-]", "TGI": "> 100"}, {"smiles": "COc1cc(CNc2nc3cc(C(F)(F)F)ccc3nc2-c2ccccc2)cc(OC)c1OC", "TGI": "> 100"}, {"smiles": "COc1cc(OCc2ccc3nc(OC)c(OC)nc3c2)cc(OC)c1OC", "TGI": "> 10"}, {"smiles": "C=C1CC[C@@H](C(C)C)C[C@@H]2[C@H]([C@H](O)C[C@]2(C)O)[C@@]2(C)CC[C@@H]1O2", "GI50": "19.4 µM", "TGI": 35}, {"smiles": "OCC(O)C(O)C(O)/C=N/Nc1nc(O)c(/C=C2\\C=Nc3ccccc32)[nH]1", "note": "(stereo unspecified)", "TGI": "> 100"}, {"smiles": "O=C1CCCc2cc3c(cc21)CC1(C3)Cc2ccc3c(c2C1)C(=O)CCC3", "note": "(stereo unspecified)", "TGI": "> 100"}, {"smiles": "Cc1ncc([N+](=O)[O-])n1CCNS(=O)(=O)CCCn1ncnc1[N+](=O)[O-]", "TGI": "> 100"}, {"smiles": "N#CC(C(=O)CCC(=O)Nc1cccc(C(F)(F)F)c1)c1ccc(Cl)cc1", "note": "(stereo unspecified)", "TGI": "> 100"}, {"smiles": "c1ccc(CSc2nc3ccccc3nc2-c2cccs2)cc1", "TGI": "> 100"}, {"smiles": "O=C([CH-]C(=O)c1ccccc1)c1ccccc1.O=C([CH-]C(=O)c1ccccc1)c1ccccc1.[O]=[U+2]=[O]", "GI50": "3.4 µM", "TGI": 60.5}, {"smiles": "COC(=O)C1=C(O)C(C(=O)OC)[C@@]2(O)[C@@H](C(=O)OC)[C@H](C)[C@@H](C)[C@@H]1[C@@H]2C(=O)OC", "note": "(stereo partly specified)", "TGI": "> 100"}]}]}
